This is one part of the list.

For one test, the system named is HepG2. Kind of test: cytotoxicity call (relative viability < 0.9). To be noted: 10 µM.
Consider `C[C@@H]1CN([C@@H](C)CO)S(=O)(=O)c2ccc(-c3ccncc3)cc2O[C@@H]1CN(C)S(=O)(=O)c1ccccc1F`, for which the cytotoxicity call is “inactive”.
With `C[C@@H]1CN([C@@H](C)CO)C(=O)CCCn2cc(nn2)CO[C@H]1CN(C)S(=O)(=O)c1ccc2ccccc2c1`, the cytotoxicity call was “inactive”.
The same measure, in the same setting: for `COc1ccc(S(=O)(=O)Nc2ccc3c(c2)C(=O)N([C@@H](C)CO)C[C@@H](C)[C@H](CN(C)C(=O)c2ccccc2)OCCCC[C@H](C)O3)cc1` the value was “inactive”; for `COc1ccccc1-c1ccc2c(c1)O[C@@H](CN(C)C(=O)c1cccnc1)[C@H](C)CN([C@H](C)CO)S2(=O)=O`, “inactive”.
As to `C[C@H]1CN([C@@H](C)CO)C(=O)Cc2cc(NC(=O)Nc3ccccc3)ccc2O[C@H]1CN(C)C(=O)Nc1cccc2ccccc12`, the cytotoxicity call was “inactive”.
For the molecule `CO[C@H]1CN(C)C(=O)c2ccc(NC(=O)c3ccccc3)cc2OC[C@@H](C)N(C(=O)CN(C)C)C[C@H]1C`, the cytotoxicity call is “inactive”.
As to `CN1CCN(C(=O)C[C@@H]2C[C@H]3c4cc(NC(=O)c5ccc6c(c5)OCO6)ccc4O[C@H]3[C@H](CO)O2)CC1`, the cytotoxicity call was “inactive”.
For the molecule `COc1ccccc1S(=O)(=O)N[C@@H]1C=C[C@@H](CC(=O)N2CCN(C)CC2)O[C@@H]1CO`, the cytotoxicity call was “inactive”.
For `Cc1ccc(S(=O)(=O)N2C[C@@H](O)COC[C@H]3O[C@@H](CC(=O)NCc4ccc5c(c4)OCO5)CC[C@@H]32)cc1`, the cytotoxicity call was “inactive”.
On the same count and under the same terms, for `C[C@H](CO)N1C[C@H](C)[C@@H](CN(C)Cc2ccc(Cl)c(Cl)c2)OCCCC[C@H](C)Oc2ccc(NS(=O)(=O)c3ccccc3)cc2C1=O` the value was “active”.

The test system of the next test is S. aureus RN4220. Kind of test: growth inhibition call (relative growth <= 0.2). To be noted: 50 µM.
Regarding `CC1(C)SCN(S(=O)(=O)c2ccccc2)[C@@H]1C(=O)N[C@@H](CNC(=O)NCc1ccccc1)C(=O)O`, the growth inhibition call was “inactive”.
For the molecule `C[C@@H]1CN([C@H](C)CO)C(=O)Cc2cc(NC(=O)Nc3ccc(F)cc3)ccc2O[C@H]1CN(C)CC1CCCCC1`, the growth inhibition call is “inactive”.
Same read-out and setting: then `COc1ccc(S(=O)(=O)N(C)C[C@H]2OCCCC[C@@H](C)Oc3ccc(NS(=O)(=O)c4ccc(Cl)cc4)cc3C(=O)N([C@H](C)CO)C[C@@H]2C)cc1`, with “inactive”; and `C[C@@H]1CN([C@@H](C)CO)C(=O)c2cc(NC(=O)Nc3ccccc3)ccc2O[C@@H](C)C/C=C/CO[C@H]1CN(C)S(=O)(=O)c1ccc(F)cc1`, with “inactive”.
Still for that read-out and setting: for `C[C@H](CO)N1C[C@H](C)[C@@H](CN(C)Cc2ccccc2)OCCCC[C@H](C)Oc2ccc(NC(=O)c3ccccc3)cc2C1=O` the value was “inactive”; for `CCCN(C)C[C@@H]1OCCCC[C@@H](C)Oc2ccc(NS(C)(=O)=O)cc2C(=O)N([C@H](C)CO)C[C@H]1C`, “inactive”; for `COCC(=O)Nc1ccc2c(c1)C(=O)N(C)[C@@H]1CC[C@H](CC(=O)NCc3ccc(OC)cc3)O[C@@H]1CO2`, “inactive”.
With `C[C@@H]1CN([C@@H](C)CO)C(=O)c2cc(-c3ccc(C(=O)N(C)C)cc3)cnc2O[C@H]1CN(C)C(=O)CN(C)C`, the growth inhibition call was “inactive”.
On to `Cc1ccc(S(=O)(=O)N(C)C[C@H]2Oc3ccc(NC(=O)CCCN(C)C)cc3C(=O)N([C@H](C)CO)C[C@@H]2C)cc1`, for which the growth inhibition call is “inactive”.
With `C[C@@H]1CN([C@H](C)CO)C(=O)Cc2cc(NS(=O)(=O)c3ccc(Cl)cc3)ccc2O[C@@H]1CN(C)C(=O)Nc1cccc2ccccc12`, the growth inhibition call is “inactive”.
With `COc1ccc(-c2cnc3c(c2)C(=O)N([C@H](C)CO)C[C@H](C)[C@H](CN(C)C(=O)Cc2cccnc2)O3)cc1`, the growth inhibition call was “inactive”.
Take `C=CCOC(=O)[C@H]1[C@@H]2C(=O)O[C@@H](c3ccccc3)[C@@H](c3ccccc3)N2[C@@H](c2ccc(OCCOC(=O)[C@@H]3C[C@@H]4C(=O)NCC(=O)N4[C@@H]3c3cccc(OCCO)c3)cc2)[C@]12C(=O)Nc1ccc(I)cc12`: the growth inhibition call is “inactive”.
As for `Oc1cc(O)cc(O)c1`, the growth inhibition call was “inactive”.
The same measure, in the same setting: for `CCOC(=O)CC1=NC(=O)CS1` the value was “inactive”; for `C[C@H]1CN([C@@H](C)CO)C(=O)c2cccc(NC(=O)CCCCCC(=O)Nc3ccccc3N)c2O[C@H]1CN(C)S(C)(=O)=O`, “inactive”; for `C[C@H]1CN([C@@H](C)CO)S(=O)(=O)c2ccc(C#CC3(O)CCCC3)cc2O[C@H]1CN(C)C(=O)Nc1cccc(F)c1`, “inactive”.
As for `COc1ccc(S(=O)(=O)N(C)C[C@H]2Oc3ccc(NC(=O)Nc4c(C)noc4C)cc3CC(=O)N([C@@H](C)CO)C[C@H]2C)cc1`, the growth inhibition call was “inactive”.
Still for that read-out and setting: for `O=c1[nH]cnc2c1ncn2C1OC(CO)C(O)C1O` (centres undefined) the value was “inactive”; for `C[C@@H]1CN([C@H](C)CO)C(=O)c2cc(NC(=O)Cc3cn(C)c4ccccc34)ccc2O[C@@H]1CN(C)C(=O)Nc1ccc(C(F)(F)F)cc1`, “inactive”.

Source of the values: the antibiotic and cytotoxicity screens of Wong et al. (2023).
